Our source for the binding signal values is publication PMC12136788.

B1: chr6:83525322:83525423:+|3pUTR|ENSG00000146250|msi1|FALSE|unique (ssRNA)
RNA: GGGAGUUCUACAGUCCGACGAUCACAAUUACAAUGUGUAUUAUUUAAAAAUGGGAGAAAUAGUUUGUUCUAUGAAAUAAACCUAGUUUAGAAAUAGGGAAGCUGAGACAUUUUAAGAUCUCAAGUUUUUAUUUAACUAAUACUCAACAGAGGAUUGAGCAUCA
B2: chr19:10690846:10690947:+|3pUTR|ENSG00000129351|msi1|total|mutant (ssRNA)
RNA: GGGAGUUCUACAGUCCGACGAUCGAAAGAGGUGAAAGAACAAGUUGUGUGCCCGAAAACUUUUGAGGAAUUCUUAUUUGUGUCCGAGCAGAGGAGGUCCCAGAUACCAAGUGGCGCCUCCCAGGAAAGGCUGGGAGAAGAGGUCAACAGAGGAUUGAGCAUCA
B3: chr5:52955293:52955406:+|3pUTR|ENSG00000213949|unk|FALSE|unique (ssRNA)
RNA: GGGAGUUCUACAGUCCGACGAUCUACCAACCAGUGUGAGCUGACUUCAGCACACCACUGAGACAGAUUACACGAUAGACAGAUAGAUAGAUAGAUAGAUAGAUAGAUAGAUAGAUAGAUAGAUAGAUAUUGAUAGAGAACAUGCAACAGAGGAUUGAGCAUCA
B4: chr4:1716041:1716142:-|3pUTR|ENSG00000168936|msi1|total|mutant (ssRNA)
RNA: GGGAGUUCUACAGUCCGACGAUCAGGCUUCCCCGAGCGCUCAGCAGGUGAAGGCAGCAGGGGCCAUGGCCGGGAGCCAGGCCCCGCUUUGAACUGAGUUUCAAGGGCUGCCAAAGAGGGGCAGUGGGUUGGGGUUGUUUUUACCAACAGAGGAUUGAGCAUCA
B5: chr20:1470740:1471132:-|three_prime_utr|ENSG00000196209|control|control|control (ssRNA)
RNA: GGGAGUUCUACAGUCCGACGAUCUCAGUUCUUGUCUGCUUGGAAGAAAGAUUUCAGCCAAGAGACACACAGCAAAGGUGAAGUAGCAGAGUUUAUUGAAGAAAGAUAAAGUACGUUCCUAGAAAGGAGUGGGCUGACCUGGCUCAACAGAGGAUUGAGCAUCA
B6: chr11:20048915:20049016:+|CDS|ENSG00000166833|unk|FALSE|bound_elsewhere (ssRNA)
RNA: GGGAGUUCUACAGUCCGACGAUCGAGCAGUGGGAGCAGCAGUCCUCUCUACAGCAAGAAUGUGGACCUCAACCAGUCUCCGCUAGCCUCCAGCCCCAGCUCAGCCCACUCGGCCCCUUCCAACAGCCUCACCUGGGGCACCAACAACAGAGGAUUGAGCAUCA
B7: chr15:22866942:22867043:+|3pUTR|ENSG00000140157|msi1|FALSE|unique (ssRNA)
RNA: GGGAGUUCUACAGUCCGACGAUCUAAAGAUUUCACUAAUUUGGACCAAGAAAUUACUUUUCUUGUAUUUAAACAAACAAUGGUAGCUCACUAAAAUGACCUCAGCACAUGACGAUUUCUAUUAACAUUUUAUUGUUGUAGAAGCAACAGAGGAUUGAGCAUCA
B8: ENSG00000214517:stop:overlap|stop_codon|ENSG00000214517|stop_codon|NA|stop_codon (ssRNA)
RNA: GGGAGUUCUACAGUCCGACGAUCUGAUCCGGCACAGGUUUGCAGAACCCAUCGGUGGAUUCCAGUGUGUGUUUCCUGGCUGUUAGUGACCUGCUGUCCACCCCUCCUCAACAUCGAGCUCUGUUGUAAAUACGUCGCACCAGACAACAGAGGAUUGAGCAUCA
B9: chr12:49796586:49796721:-|CDS|ENSG00000167566|msi1|total|mutant (ssRNA)
RNA: GGGAGUUCUACAGUCCGACGAUCGAGGCCCACAGGCCAGGCUUCGGUGCUACCUCAGAGGGCCAGGGGCCCCUCCCCUUCCUCCGCAUGUUCAUGGGUGCUGGGGAUGCCCCACUGGGCUCUCGGCCUGGCCACCCCCAUUCCCAACAGAGGAUUGAGCAUCA
B10: chr1:214663888:214664008:+|3pUTR|ENSG00000117724|msi1|total|mutant (ssRNA)
RNA: GGGAGUUCUACAGUCCGACGAUCAGGAGAAAACAAUUCCUCCGAAGUCUUAAAUAUAUUGUACUCUUCCGAUCUCCCAUGUGCCGGUAUUGAAAAAGUUUGGAAGCACUGAUCACCUGUCCGCAUUGCCAUUCCUCUACUGCACAACAGAGGAUUGAGCAUCA
B11: ENSG00000052841:stop:overlap|stop_codon|ENSG00000052841|stop_codon|NA|stop_codon (ssRNA)
RNA: GGGAGUUCUACAGUCCGACGAUCAGAACCGAAUCCAGACCAUCCAGUGUCACUUAAUGCUGAAGAAGGGACGGCGCUCUCCUUAGUGCACUUCUUCCUUCUCUCUUUCUCUUUACUCAUGCUCUAAAAAAAAAGAAUAAGAAACAACAGAGGAUUGAGCAUCA
B12: chr2:240467638:240467855:+|3pUTR|ENSG00000063660|msi1|total|mutant (ssRNA)
RNA: GGGAGUUCUACAGUCCGACGAUCGGACGGAGGUCCCCGGUUGCUGGUCAGGUCCCCAUGGCUUGUUCUCUGGAACCUGACUUCCGAUGUUUUGGGAUCAGGAGCCCCCAACACAGGCAAGUCCACCCCAUAAUAACCCUGCCACAACAGAGGAUUGAGCAUCA
B13: chr4:75812186:75812332:+|CDS|ENSG00000138768|unk|FALSE|unique (ssRNA)
RNA: GGGAGUUCUACAGUCCGACGAUCAGAGCAGCUGGAUUCAUCUAAUAGUACCAUUGCCAUUUUACAAACUGAGAAAGACAAACUAGAGUUGGAAAUUACAGAUUCUAAAAAAGAACAAGAUGAUCUCUUGGUGCUCUUGGCCGACAACAGAGGAUUGAGCAUCA
B14: chr7:92612324:92612425:-|3pUTR|ENSG00000105810|msi1|FALSE|bound_elsewhere (ssRNA)
RNA: GGGAGUUCUACAGUCCGACGAUCAUCCAACACAAGCAGUCUUGCCGUUAGGGCAUUUUGAAGCAGAUAGUAGAGUAAGAACUUAGUGACUACAGCUUAUUCUUCUGUAACAUAUGGUUUCAAACAUCUUUGCCAAAAGCUAAGCAACAGAGGAUUGAGCAUCA
B15: ENSG00000070961:be:win_2051|CDS|ENSG00000070961|bound_else_gene|NA|bound_elsewhere_windowed (ssRNA)
RNA: GGGAGUUCUACAGUCCGACGAUCAUCCUGUGAGACCUGAGGUGCCAGAUGCAAUUAAAAAGUGUCAGAGGGCUGGAAUUACUGUGCGGAUGGUCACUGGUGAUAAUAUUAAUACUGCUCGGGCCAUUGCUACCAAAUGUGGUACAACAGAGGAUUGAGCAUCA
B16: chr11:35619468:35619569:+|CDS|ENSG00000179431|unk|FALSE|unique (ssRNA)
RNA: GGGAGUUCUACAGUCCGACGAUCCCCCCUCCGGGAUGCCGGGGGUGAGCUGGCCAACCUCAGCCAGGCGGAGCUGGUGGACCUAGUACAAUGGACCGACUUAAUCCUUUUCGACUACCUGACGGCCAACUUCGACCGGCUCGUCAACAGAGGAUUGAGCAUCA
B17: chr9:93565116:93565217:+|3pUTR|ENSG00000048828|unk|total|mutant (ssRNA)
RNA: GGGAGUUCUACAGUCCGACGAUCAUAUACAAUACAUCAUACAUACUUUACAAGCAAGUUAAAUGGAGAUAAAGUUGAAAUCACCGAAGAUGCAAAUGACCUUUCAAAAUCAACACAAUGUGUUCUGAAACUUUCGUGACUAAUCAACAGAGGAUUGAGCAUCA
B18: ENSG00000070961:be:win_6351|3pUTR|ENSG00000070961|bound_else_gene|NA|bound_elsewhere_windowed (ssRNA)
RNA: GGGAGUUCUACAGUCCGACGAUCCAGAUGUCAGUUUUGAACCAAGAAUUGGUGAUUUGUUUAUAAGAAAAAAACUGGCUUCAUUUCUGUGAAAUUGCUCUUUGAAAAUUUCUUUUUACACGUGUAAGCCAACUGAGAUACCGUCAACAGAGGAUUGAGCAUCA
B19: chr11:134247321:134247422:+|3pUTR|ENSG00000151502|unk|FALSE|unique (ssRNA)
RNA: GGGAGUUCUACAGUCCGACGAUCCCUUUUCAGAGCAUGAGGUCAGGCUCUGUAUCCCUCCUUUUCCUAGCUGAUAUUCUAACUAGAAGCAUUUGUCAAUUCCUUUGCCUCCCAACUGACAACACACGUUCAUUUUCCAACCUUCAACAGAGGAUUGAGCAUCA
B20: chr5:172042892:172042993:-|3pUTR|ENSG00000072786|msi1|FALSE|unique (ssRNA)
RNA: GGGAGUUCUACAGUCCGACGAUCGAUUCUCCCGCUUCAACCUUGAGUAGCUGGGACGACAGAUACAUGCUACUGCACCCAGCUAGGUUAAGGUUCUGUAUACUCUGUCUUUCUAAAGCAAUUCCCUGGAAAUUUUCUCAACAUCAACAGAGGAUUGAGCAUCA
B21: chr11:92891788:92891889:+|3pUTR|ENSG00000165323|msi1|FALSE|bound_elsewhere (ssRNA)
RNA: GGGAGUUCUACAGUCCGACGAUCAUGAGGCUUUUUGGGUUCCAUUUGGUGGGUGGGGGAGGAAGUUAAAGUUGUUUGAACAUUAGAAAGAAUGUGAUUAUCUGGUUGGUUUUGUGUUUUCUGGUAAAUAUUCCAGUUGGUAAACAACAGAGGAUUGAGCAUCA
B22: chr16:58279996:58280223:-|three_prime_utr|ENSG00000103023|control|control|control (ssRNA)
RNA: GGGAGUUCUACAGUCCGACGAUCGUAAACUGAGAAUGCUGAGUGCCAGGCAUUCACCAUGCUGUUUUGAUGUCUGUUUUUGAUAGUUGCACACUGGGGCUGCCACGGAUAAGCCCAUGGCAUACACUGGGCUGGCUCUCCCUCCAACAGAGGAUUGAGCAUCA

The other results are listed elsewhere or left out.

This test has as its target MSI1 full-length (mouse, UniProt Q61474 1-362). The test can be described thus: nsRBNS (natural sequence RNA bind-n-seq); RBNS binding buffer (assumed for nsRBNS): 25 mM Tris pH 7.5, 150 mM KCl, 3 mM MgCl2, 0.01% Triton X-100, 500 ug/ml BSA, 20 U/ml SUPERase-In, 4 C; UNK is unkempt and MSI1 is Musashi-1; names of the RNAs are library labels; protein concentration not given here; high values mean tight binding.
Chain of UniProt Q61474 (Q61474 whole entry): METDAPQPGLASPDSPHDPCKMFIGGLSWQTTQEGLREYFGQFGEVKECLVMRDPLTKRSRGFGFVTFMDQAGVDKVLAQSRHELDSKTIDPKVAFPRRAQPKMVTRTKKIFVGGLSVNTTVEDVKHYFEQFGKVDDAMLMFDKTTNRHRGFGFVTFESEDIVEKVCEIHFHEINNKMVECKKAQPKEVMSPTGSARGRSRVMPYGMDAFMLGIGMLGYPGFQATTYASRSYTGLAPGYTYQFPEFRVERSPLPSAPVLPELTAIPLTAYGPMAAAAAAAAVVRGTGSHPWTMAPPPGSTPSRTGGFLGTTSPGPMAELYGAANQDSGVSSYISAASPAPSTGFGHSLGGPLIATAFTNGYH
B1 came in with a binding signal of 8.55 enrichment R.
Under B2 stands 0.428 enrichment R; under B3, 67 enrichment R; under B4, 0.406 enrichment R.
Molecule B5 gave a binding signal of 0.631 enrichment R.
Under B6 stands 0.631 enrichment R; under B7, 0.998 enrichment R.
The same measure for B8: 0.383 enrichment R; for B9: 0.321 enrichment R.
Under B10 stands 0.406 enrichment R; under B11, 0.61 enrichment R; under B12, 0.376 enrichment R.
B13 gave a binding signal of 0.957 enrichment R.
The same measure for B14: 2.88 enrichment R.
Consider B15, for which the binding signal stood at 0.429 enrichment R.
Under B16 stands 0.37 enrichment R; under B17, 0.485 enrichment R; under B18, 0.312 enrichment R.
The same measure for B19: 1.18 enrichment R; for B20: 0.423 enrichment R.
The same measure for B21: 1.1 enrichment R.
B22 registered a binding signal of 0.44 enrichment R.
